According to PMC6602471:
The list shows a part of the results. At the low end of the ranking the order means little.

Each sequence was assayed against T1, ETS1 (UniProt P14921) (assay: custom PBM). Conditions: custom protein-binding microarray; buffer, salt, pH and temperature not stated; high values mean tight binding; double strand, one strand shown.
T1 sequence: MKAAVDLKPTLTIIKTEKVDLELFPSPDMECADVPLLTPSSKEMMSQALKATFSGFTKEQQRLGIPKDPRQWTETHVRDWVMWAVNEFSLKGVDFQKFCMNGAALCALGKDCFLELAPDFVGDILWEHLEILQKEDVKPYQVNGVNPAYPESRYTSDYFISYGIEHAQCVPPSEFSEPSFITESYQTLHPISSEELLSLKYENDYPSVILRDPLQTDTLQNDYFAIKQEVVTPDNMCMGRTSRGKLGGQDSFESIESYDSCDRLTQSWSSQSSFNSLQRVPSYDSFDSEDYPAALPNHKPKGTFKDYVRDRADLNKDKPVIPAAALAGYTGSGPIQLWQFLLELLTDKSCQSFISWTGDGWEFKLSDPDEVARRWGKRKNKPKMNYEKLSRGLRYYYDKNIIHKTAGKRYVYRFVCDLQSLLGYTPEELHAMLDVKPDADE

Sequence | binding signal (log fluorescence intensity)
AGGAAGTGTCGTAAACGTCGGATATCCGGTTCTTCTGTCTTGATTCGCTTGACGCTGCTG | 12
TACTGACTTATATATGCGAATGCACATGAGTAGACCGTCTTGATTCGCTTGACGCTGCTG | 8.14
GGAAAAAGGCCCAGGGTCACACCGGAAGTGGGCTTAGTCTTGATTCGCTTGACGCTGCTG | 11.9
CACAATTTTTACAGTAATGAAGCACGCGTAACTCCTGTCTTGATTCGCTTGACGCTGCTG | 8.24
GCTGCTGCGGTTCATACCCCACCGGATGTGACCCCGGTCTTGATTCGCTTGACGCTGCTG | 10.2
CTGGGATTTGACCCAACTCTGCCACGTGGGTCGTTTGTCTTGATTCGCTTGACGCTGCTG | 8.26
TCCGGCTACCAGCTCCACCCAATTCAGGCCTTGTAGGTCTTGATTCGCTTGACGCTGCTG | 8.12
GGAAAAAGGCCCAGGGTGACACCGGAAGTGGGCTTAGTCTTGATTCGCTTGACGCTGCTG | 11.8
TAAAGGGATGACGGTTGTGGTAGTTCCGGGTATTAAGTCTTGATTCGCTTGACGCTGCTG | 8.34
TCCGGCTACCAGCTCCACACACTTCAGGCCTTGTAGGTCTTGATTCGCTTGACGCTGCTG | 8.09
GGAAAAAGGCCCAGGGTAACACCGGAAGTGGGCTTCGTCTTGATTCGCTTGACGCTGCTG | 12.1
TGTCGGGTTAGGGAATGTAGATCACGTGAATGAAAAGTCTTGATTCGCTTGACGCTGCTG | 8.1
CTGGGACTTGACCCAACTCTGCCTCGTGGGTCGTTTGTCTTGATTCGCTTGACGCTGCTG | 8.13
GTGTATAGGATCCCAACCAACACACGTGTTAAAATGGTCTTGATTCGCTTGACGCTGCTG | 8.28
CACAATTTTTACAGTAAAGTAGCACGCGTAACTCCTGTCTTGATTCGCTTGACGCTGCTG | 8.29
TAAAGGGAACACGGTTGTGGTAGTTCCGGGTATTAAGTCTTGATTCGCTTGACGCTGCTG | 8.29
TCCGGCTACCAGCTCCACCCACATCAGGCCTTGTAGGTCTTGATTCGCTTGACGCTGCTG | 8.27
CTGGGACTTGACCCAACTCTGCCACGTGGGTCGTTCGTCTTGATTCGCTTGACGCTGCTG | 8.24
TAAAGGGAAGACGGTGGTGGTAGTTCCGGGTATTAAGTCTTGATTCGCTTGACGCTGCTG | 8.68
GTGTATAGGATCCGATCCAACACACGTGTTAAAATGGTCTTGATTCGCTTGACGCTGCTG | 8.18
GATTAATTTCTGCCTTTATTCGCACGTGCCATAACAGTCTTGATTCGCTTGACGCTGCTG | 8.1
CGGAAGTATCGTAAACGTCGGATATCCGGTTCTTCTGTCTTGATTCGCTTGACGCTGCTG | 11.5
CAGCATAGGACTTCTTCCCTGAATCAATTGATAACCGTCTTGATTCGCTTGACGCTGCTG | 8.24
GTAAAAAGGCCCAGGGTAACACCGGAAGTGGGCTTAGTCTTGATTCGCTTGACGCTGCTG | 12
GATTAATTTCTGCCCTAATTCGCACGTGCCATAACAGTCTTGATTCGCTTGACGCTGCTG | 8.2
GCTGCTGCGGTGCATACCCCTCCGGATGTGACCCCGGTCTTGATTCGCTTGACGCTGCTG | 8.64

Sequence | binding signal (log fluorescence intensity)
TGTCGGGTAAGGGACTGTAGATCACGTGAATGAAAAGTCTTGATTCGCTTGACGCTGCTG | 8.1
GTGTATAGGATCCCATCCAACACACGTGTCAAAATGGTCTTGATTCGCTTGACGCTGCTG | 8.18
TACTGACTTATATATGCGAATACACATGAATAGACCGTCTTGATTCGCTTGACGCTGCTG | 8.27
TGTCGGGTAAGGGAATGTAGATCACGCGAATGAAAAGTCTTGATTCGCTTGACGCTGCTG | 8.23
GTGTAGAGGATCCCATCCAACACACGTGTTAAAATGGTCTTGATTCGCTTGACGCTGCTG | 8.26
CAGCATAGGACTTCTTCCCTGAAGCAATTGATAACTGTCTTGATTCGCTTGACGCTGCTG | 8.3
TACTGACTTATATATGCGAATGCGCATGAATAGACCGTCTTGATTCGCTTGACGCTGCTG | 8.09
GATTAATTCCTGCCCTTATTCGCACGTGCCATAACAGTCTTGATTCGCTTGACGCTGCTG | 10.3
TAAAGGGAAGACGGTTCTGGTAGTTCCGGGTATTAAGTCTTGATTCGCTTGACGCTGCTG | 8.63
TCCGGCTACCAGCTCCAGCCACTTCAGGCCTTGTAGGTCTTGATTCGCTTGACGCTGCTG | 8.12
GCTGCTGCGGTGCATACCCAACCGGATGTGACCCCGGTCTTGATTCGCTTGACGCTGCTG | 10.3
GTGTATAGGATCCCATCCAACACACCTGTTAAAATGGTCTTGATTCGCTTGACGCTGCTG | 8.32
TACTGACTTATATATGCGGATGCACATGAATAGACCGTCTTGATTCGCTTGACGCTGCTG | 8.31
TCCTGCTACCAGCTCCACCCACTTCAGGCCTTGTAGGTCTTGATTCGCTTGACGCTGCTG | 8.42
TAAAGGGAAGACGGCTGTGGTAGTTCCGGGTATTAAGTCTTGATTCGCTTGACGCTGCTG | 8.35
GCTGCTGCGGTGCATACCCCATCGGATGTGACCCCGGTCTTGATTCGCTTGACGCTGCTG | 8.41
TACTGACTTATTTATGCGAATGCACATGAATAGACCGTCTTGATTCGCTTGACGCTGCTG | 8.24
CAGCATAGGACTTCTTCCCTGAAGCAATTGATCACCGTCTTGATTCGCTTGACGCTGCTG | 8.29
TGTCGGGTAAGGGAATGTAGATCACGTGAATGTAAAGTCTTGATTCGCTTGACGCTGCTG | 8.34
CTGGGACTTGACCCAACTCTGCCACGTGGGTCGTATGTCTTGATTCGCTTGACGCTGCTG | 8.32
CTGGGACTAGACCCAACTCTGCCACGTGGGTCGTTTGTCTTGATTCGCTTGACGCTGCTG | 8.14
GTGTATAGGATCCCATCCAACACACGTGTTACAATGGTCTTGATTCGCTTGACGCTGCTG | 8.2
GGAGAAAGGCCCAGGGTAACACCGGAAGTGGGCTTAGTCTTGATTCGCTTGACGCTGCTG | 11.9
GTGTATAGGATCCCATCCAACACACATGTTAAAATGGTCTTGATTCGCTTGACGCTGCTG | 8.12
GATTAATTTCTGCCCGTATTCGCACGTGCCATAACAGTCTTGATTCGCTTGACGCTGCTG | 8.33
GGAAAAAGGCCCAGGGTAACACCGGAAGTGGGCTCAGTCTTGATTCGCTTGACGCTGCTG | 12
